# From a collection of fitness landscapes (doi:10.1126/science.1257360)
# This is one part of the list.
# B1: PhoQ; a variant is named by its letters at X, in order, P23837 (parent)
# chain: MKKLLRLFFPLSLRVRFLLATAAVVLVLSLAYGMVALIGYSVSFDKTTFRLLRGESNLFYTLAKWENNKLHVELPENIDKQSPTMTLIYDENGQLLWAQRDVPWLMKMIQPDWLKSNGFHEIEADVNDTSLLLSGDHSIQQQLQEVREDDDDAEMTHSVAVNVYPATSRMPKLTIVVVDTIPVELKSSYMVWSWFIYVLSANLLLVIPLLWVAAWWSLRPIEALAKEVRELEEHNRELLNPATTRELTSLVRNLNRLLKSERERYDKYRTTLTDLTHSLKTPLXXLQXXLRSLRSEKMSVSDAEPVMLEQISRISQQIGYYLHRASMRGGTLLSRELHPVAPLLDNLTSALNKVYQRKGVNISLDISPEISFVGEQNDFVEVMGNVLDNACKYCLEFVEISARQTDEHLYIVVEDDGPGIPLSKREVIFDRGQRVDTLRPGQGVGLAVAREITEQYEGKIVAGESMLGGARMEVIFGRQHSAPKDE
# Variants of: B1
# Assay: enrichment ratio after two sorts for PhoP signalling (ratio (wild type AVST 3.29)); higher = more functional
# Conditions: with PhoP (E. coli)
row,Variant,enrichment ratio
1,EHCY,≤ 0.25
2,YCAR,≤ 0.25
3,GQDF,≤ 0.25
4,WMHR,≤ 0.25
5,LLTE,≤ 0.25
6,PKYE,≤ 0.25
7,MFNL,≤ 0.25
8,RTVK,≤ 0.25
9,PCDR,≤ 0.25
10,RINS,≤ 0.25
11,CFWI,≤ 0.25
12,TEYP,≤ 0.25
13,WHSI,≤ 0.25
14,MWFN,≤ 0.25
15,HNNS,≤ 0.25
16,IWLC,≤ 0.25
17,PNDG,≤ 0.25
18,TKRK,≤ 0.25
19,GETM,≤ 0.25
20,RRTT,≤ 0.25
21,QPAL,≤ 0.25
22,SWDK,≤ 0.25
23,DDVR,≤ 0.25
24,QPYL,≤ 0.25

row,Variant,enrichment ratio
1,GLRQ,≤ 0.25
2,QEAK,≤ 0.25
3,WEGI,≤ 0.25
4,AGDF,≤ 0.25
5,PRGA,≤ 0.25
6,KKPW,≤ 0.25
7,MDSR,≤ 0.25
8,TTYF,3.17
9,QQKW,≤ 0.25
10,TEIH,11.4
11,PNRD,≤ 0.25
12,MYIA,≤ 0.25
13,LYRH,≤ 0.25
14,DKDA,≤ 0.25
15,GVFW,≤ 0.25
16,NDIC,≤ 0.25
17,PISY,≤ 0.25
18,AADL,≤ 0.25
19,VMSG,≤ 0.25
20,DDRG,≤ 0.25
21,QGCS,≤ 0.25
22,TECG,15.7
23,RWLD,≤ 0.25
24,FSLA,6.09

row,Variant,enrichment ratio
1,VLFF,≤ 0.25
2,LNWD,≤ 0.25
3,AWPR,≤ 0.25
4,FMIH,≤ 0.25
5,MLMS,≤ 0.25
6,PHTC,≤ 0.25
7,KRPV,≤ 0.25
8,IAIP,≤ 0.25
9,MLWN,≤ 0.25
10,NPCR,≤ 0.25
11,SQLH,8.37
12,HTQG,≤ 0.25
13,GNDR,≤ 0.25
14,GELF,9.93
15,RFCT,≤ 0.25
16,ICIW,≤ 0.25
17,IMWV,≤ 0.25
18,TFCE,≤ 0.25
19,SCSP,≤ 0.25
20,AMFW,≤ 0.25
21,AEAF,5
22,WYFM,≤ 0.25
23,YHSW,≤ 0.25
24,DDLC,≤ 0.25

row,Variant,enrichment ratio
1,IWHR,≤ 0.25
2,TPPY,≤ 0.25
3,FCCL,5.06
4,HKHS,≤ 0.25
5,DIYW,≤ 0.25
6,SIVE,0.728
7,NMGV,≤ 0.25
8,YFHF,≤ 0.25
9,TKLF,18
10,FLMM,1.72
11,STSQ,8.16
12,NWYD,≤ 0.25
13,LIME,≤ 0.25
14,TQGC,0.772
15,DPRE,≤ 0.25
16,WCKS,≤ 0.25
17,VMCS,≤ 0.25
18,YYVF,≤ 0.25
19,SRTM,1.44
20,NYSC,≤ 0.25
21,DYFN,≤ 0.25
22,FECS,19.8
23,QTDD,≤ 0.25
24,IHGP,≤ 0.25

row,Variant,enrichment ratio
1,WDTG,≤ 0.25
2,SMKN,≤ 0.25
3,NPMS,≤ 0.25
4,EGKQ,≤ 0.25
5,QPME,≤ 0.25
6,PIQG,≤ 0.25
7,RQNT,≤ 0.25
8,QHFE,≤ 0.25
9,FRMC,≤ 0.25
10,MQDC,≤ 0.25
11,ENFC,≤ 0.25
12,WYVF,≤ 0.25
13,RVKS,≤ 0.25
14,YRNM,≤ 0.25
15,EFIM,≤ 0.25
16,FLNS,≤ 0.25
17,EKYF,≤ 0.25
18,MAEY,≤ 0.25
19,MFEG,≤ 0.25
20,YSMK,≤ 0.25
21,EHAA,≤ 0.25
22,RSQG,≤ 0.25
23,REHV,≤ 0.25
24,DRFW,≤ 0.25

row,Variant,enrichment ratio
1,MHCH,≤ 0.25
2,HLSS,≤ 0.25
3,TICF,≤ 0.25
4,ADYY,≤ 0.25
5,DGCT,≤ 0.25
6,ETPI,≤ 0.25
7,IPFL,≤ 0.25
8,PSSP,≤ 0.25
9,SNDL,≤ 0.25
10,VYGT,≤ 0.25
11,MNSF,0.711
12,WGWG,≤ 0.25
13,RVLV,≤ 0.25
14,YCER,≤ 0.25
15,DECT,≤ 0.25
16,GDCM,8.58
17,PALD,≤ 0.25
18,MKDM,≤ 0.25
19,SIYK,≤ 0.25
20,YKVS,≤ 0.25
21,YDYV,≤ 0.25
22,DFSK,≤ 0.25
23,TWKA,≤ 0.25
24,PWRI,≤ 0.25

row,Variant,enrichment ratio
1,PCTD,≤ 0.25
2,GHYV,≤ 0.25
3,HLWQ,≤ 0.25
4,DVMY,≤ 0.25
5,ADAT,≤ 0.25
6,WYHG,≤ 0.25
7,SDVD,≤ 0.25
8,SHKM,≤ 0.25
9,AGGF,2.48
10,AECW,2.86
11,QATH,≤ 0.25
12,QYNE,≤ 0.25
13,RSTL,≤ 0.25
14,WFDN,≤ 0.25
15,ARMI,≤ 0.25
16,WKDN,≤ 0.25
17,LAQM,≤ 0.25
18,LRIN,≤ 0.25
19,NHIN,≤ 0.25
20,ILTQ,≤ 0.25
21,FQGP,≤ 0.25
22,DPDY,≤ 0.25
23,NPCS,≤ 0.25
24,DGIF,≤ 0.25

row,Variant,enrichment ratio
1,GHVS,≤ 0.25
2,FKAR,≤ 0.25
3,PSQE,≤ 0.25
4,PTQP,≤ 0.25
5,VCIC,≤ 0.25
6,KDVV,≤ 0.25
7,WIQL,≤ 0.25
8,MKRF,≤ 0.25
9,PEIW,≤ 0.25
10,QYQD,≤ 0.25
11,WLRC,≤ 0.25
12,NCKA,≤ 0.25
13,VHGN,≤ 0.25
14,WYRI,≤ 0.25
15,IGWM,≤ 0.25
16,YHIR,≤ 0.25
17,QHVV,≤ 0.25
18,LFAY,≤ 0.25
19,NTAE,≤ 0.25
20,HDKN,≤ 0.25
21,MRYV,≤ 0.25
22,PVWL,≤ 0.25
23,WVRL,≤ 0.25
24,LRKA,≤ 0.25

row,Variant,enrichment ratio
1,YWEW,≤ 0.25
2,MQWF,≤ 0.25
3,DREV,≤ 0.25
4,MKGH,≤ 0.25
5,DQSR,≤ 0.25
6,PPCW,≤ 0.25
7,KQSP,≤ 0.25
8,ETSG,≤ 0.25
9,GNTQ,≤ 0.25
10,IFDH,≤ 0.25
11,LIRT,≤ 0.25
12,VRTC,≤ 0.25
13,QKML,≤ 0.25
14,ERSQ,≤ 0.25
15,SPHG,≤ 0.25
16,EADI,≤ 0.25
17,ADWV,≤ 0.25
18,NTGI,≤ 0.25
19,NTAS,≤ 0.25
20,AARH,≤ 0.25
21,NRAA,≤ 0.25
22,IYLA,≤ 0.25
23,YSAH,≤ 0.25
24,ASCR,4.6

row,Variant,enrichment ratio
1,ITDY,≤ 0.25
2,SKFL,≤ 0.25
3,KPLG,≤ 0.25
4,EGIP,≤ 0.25
5,QSMG,≤ 0.25
6,LKWC,≤ 0.25
7,MHPK,≤ 0.25
8,DYYH,≤ 0.25
9,QQNC,≤ 0.25
10,SLTC,2.93
11,DNQA,≤ 0.25
12,IAPR,≤ 0.25
13,QILS,≤ 0.25
14,VDNK,≤ 0.25
15,NFFF,≤ 0.25
16,MLYL,10.2
17,AQDG,≤ 0.25
18,LPQN,≤ 0.25
19,QHDQ,≤ 0.25
20,TEAH,40
21,SQEY,≤ 0.25
22,YRWD,≤ 0.25
23,NNGP,≤ 0.25
24,KNLE,≤ 0.25

row,Variant,enrichment ratio
1,HPFE,≤ 0.25
2,WRTP,≤ 0.25
3,TIVY,≤ 0.25
4,DHME,≤ 0.25
5,DCQC,≤ 0.25
6,QMSY,4.57
7,MCWL,6.27
8,MKAD,≤ 0.25
9,FTKM,≤ 0.25
10,KQHL,≤ 0.25
11,YLTL,1.11
12,NPPK,≤ 0.25
13,SHLY,5.46
14,VKHG,≤ 0.25
15,YFFE,≤ 0.25
16,WEQT,≤ 0.25
17,TPTI,≤ 0.25
18,SEES,6.49
19,AHLR,≤ 0.25
20,YGQI,≤ 0.25
21,LVCI,≤ 0.25
22,QKIV,≤ 0.25
23,DLGV,≤ 0.25
24,RQDA,≤ 0.25

row,Variant,enrichment ratio
1,GLFY,≤ 0.25
2,HDHC,≤ 0.25
3,IAKM,≤ 0.25
4,LAAK,≤ 0.25
5,YHRL,≤ 0.25
6,HVKY,≤ 0.25
7,DEYT,≤ 0.25
8,PVVF,≤ 0.25
9,TENT,3.14
10,GTFL,≤ 0.25
11,LSRF,≤ 0.25
12,TTVG,3.36
13,TEEY,3.77
14,QEWF,≤ 0.25
15,RITT,≤ 0.25
16,YTYW,≤ 0.25
17,LPIM,≤ 0.25
18,SNNA,6.23
19,TMNI,3.75
20,MILE,≤ 0.25
21,QYFR,≤ 0.25
22,YHNP,≤ 0.25
23,WFRS,≤ 0.25
24,ADRP,≤ 0.25

row,Variant,enrichment ratio
1,EIWV,≤ 0.25
2,DLLE,≤ 0.25
3,PQSQ,≤ 0.25
4,GQLI,8.6
5,NMTG,≤ 0.25
6,KEHY,≤ 0.25
7,DTQI,≤ 0.25
8,VKNP,≤ 0.25
9,TTRE,≤ 0.25
10,KIVP,≤ 0.25
11,IFAN,≤ 0.25
12,ETGY,≤ 0.25
13,NLSE,≤ 0.25
14,TSGA,10
15,PCCR,≤ 0.25
16,SHKY,≤ 0.25
17,VNLT,3.84
18,PGPP,≤ 0.25
